From article PMC8421223 (2021)

What was measured:
[1] = tested on: RNA-A (RNA, mismatch bulge abasic) GCAGCUCGUCCUG/CAGGAUAGCUGC; test: ITC, RNA titrated into ligand; details: 100 mM NaCl, 10 mM Na2HPO4; pH 7, 1 mM EDTA, 0.1% DMSO, 25 °C
[2] = tested on: RNA-A (RNA, mismatch bulge abasic) GCAGCUCGUCCUG/CAGGAUAGCUGC; test: UV melting, 260 nm; details: 100 mM NaCl, 10 mM Na2HPO4; pH 7, 1 mM EDTA, 0.1% DMSO; 2 μM RNA, 10 μM ligand
[3] = tested on: RNA-H (RNA, mismatch bulge abasic, inosine at 8 of strand 1) GCAGCUCGUCCUG/CAGGAUAGCUGC; test: fluorescence titration of berberine (ex 365 nm, em 550 nm); details: 100 mM KCl, 0.5 mM MgCl2; 50 mM MES-LiOH pH 7, 0.1% DMSO, 0.01% Tween-20, 25 °C, 50 nM BRB
[4] = tested on: C10 (RNA, other) GGUCUCUAUUUUACCCUCCUACAAGCCUCAGAGUACUUCGAGUCUCCCUUCACCAUUUCCGACGGCAUCUACGGCUCAACAUUUUUUGUAGCCACAG; test: fluorescence of berberine with crude in vitro transcript; details: 100 mM KCl, 0.5 mM MgCl2; 50 mM MES-LiOH pH 7, 1 μM BRB, 0.1% DMSO, 0.01% Tween-20, 25 °C; crude transcription mix
[5] = tested on: RNA-D (RNA, mismatch bulge abasic) GCAGCUCGUCCUG/CAGGAUCAGCUGC; test: fluorescence titration of berberine (ex 365 nm, em 550 nm); details: 100 mM KCl, 0.5 mM MgCl2; 50 mM MES-LiOH pH 7, 0.1% DMSO, 0.01% Tween-20, 25 °C; n.d., RNA up to 4 μM
[6] = tested on: RNA-E (RNA, mismatch bulge abasic) GCAGCUCAUCCUG/CAGGAUAGCUGC; test: as above; details: 100 mM KCl, 0.5 mM MgCl2; 50 mM MES-LiOH pH 7, 0.1% DMSO, 0.01% Tween-20, 25 °C, 50 nM BRB
[7] = tested on: A1-D (RNA, hairpin) GGUGGAGAUGAAAGAUGAUUUCCUCCA; test: fluorescence of berberine with crude in vitro transcript; details: 100 mM KCl, 0.5 mM MgCl2; 50 mM MES-LiOH pH 7, 1 μM BRB, 0.1% DMSO, 0.01% Tween-20, 25 °C; crude transcription mix
[8] = tested on: RNA-G (RNA, mismatch bulge abasic) GCAGCUCUUCCUG/CAGGAAAGCUGC; test: fluorescence titration of berberine (ex 365 nm, em 550 nm); details: 100 mM KCl, 0.5 mM MgCl2; 50 mM MES-LiOH pH 7, 0.1% DMSO, 0.01% Tween-20, 25 °C, 50 nM BRB
[9] = tested on: RNA-I (RNA, mismatch bulge abasic) GCAGCACGUCCUG/CAGGAUUGCUGC; test: as above; details: 100 mM KCl, 0.5 mM MgCl2; 50 mM MES-LiOH pH 7, 0.1% DMSO, 0.01% Tween-20, 25 °C, 50 nM BRB
[10] = tested on: A10 (RNA, other) GGUGAUAGCUCUUUCUCGAUUCCGUGGGUGGUGGUGCAUGGCCGUUCUCUUCUUGUGAUGUGACAGGAUGAUUCAUACCAGUCACUUUUAAAGCACUGUGUAAUGAGCAGAGUCCUUAGAAACAUCUUAGCAUC; test: fluorescence of berberine with crude in vitro transcript; details: 100 mM KCl, 0.5 mM MgCl2; 50 mM MES-LiOH pH 7, 1 μM BRB, 0.1% DMSO, 0.01% Tween-20, 25 °C; crude transcription mix
[11] = tested on: A1-A (RNA, other) GGUCUCACAGUUCACCAGCCUGGAGAUGAAAGAUGAUUUCCUCCAUGGACUGCAGA; test: as above; details: 100 mM KCl, 0.5 mM MgCl2; 50 mM MES-LiOH pH 7, 1 μM BRB, 0.1% DMSO, 0.01% Tween-20, 25 °C; crude transcription mix
[12] = tested on: RNA-B (RNA, mismatch bulge abasic) GCAGCUCAUCCUG/CAGGACAGCUGC; test: fluorescence titration of berberine (ex 365 nm, em 550 nm); details: 100 mM KCl, 0.5 mM MgCl2; 50 mM MES-LiOH pH 7, 0.1% DMSO, 0.01% Tween-20, 25 °C, 50 nM BRB
[13] = tested on: RNA-A (RNA, mismatch bulge abasic) GCAGCUCGUCCUG/CAGGAUAGCUGC; test: as above; details: 100 mM KCl, 0.5 mM MgCl2; 50 mM MES-LiOH pH 7, 0.1% DMSO, 0.01% Tween-20, 25 °C, 50 nM BRB
[14] = tested on: RNA-A (RNA, mismatch bulge abasic) GCAGCUCGUCCUG/CAGGAUAGCUGC; test: NMR structure (NOESY, TOCSY); details: 100 mM NaCl, 10 mM Na2HPO4; pH 7, 1 mM EDTA, 10% 2H2O, 25 °C, 300 μM RNA
[15] = tested on: A1 (RNA, other) GGUCUCACAGUUCACCAGCCUGGAGAUGAAAGAUGAUUUCCUCCAUGGACUGCAGAUGCUGAAAUCUCUCCGCCCCCCGUUCCCCCCUCCUCCUCGGCGCGCGGCGGCGGAGAGCCGGCU; test: fluorescence of berberine with crude in vitro transcript; details: 100 mM KCl, 0.5 mM MgCl2; 50 mM MES-LiOH pH 7, 1 μM BRB, 0.1% DMSO, 0.01% Tween-20, 25 °C; crude transcription mix
[16] = tested on: RNA-C (RNA, duplex) GCAGCUGUCCUG/CAGGAUAGCUGC; test: fluorescence titration of berberine (ex 365 nm, em 550 nm); details: 100 mM KCl, 0.5 mM MgCl2; 50 mM MES-LiOH pH 7, 0.1% DMSO, 0.01% Tween-20, 25 °C; n.d., RNA up to 4 μM
[17] = tested on: RNA-J (RNA, mismatch bulge abasic) GCAGCAUGUCCUG/CAGGAUUGCUGC; test: as above; details: 100 mM KCl, 0.5 mM MgCl2; 50 mM MES-LiOH pH 7, 0.1% DMSO, 0.01% Tween-20, 25 °C; n.d., RNA up to 4 μM
[18] = tested on: A1-B (RNA, other) GGCUGAAAUCUCUCCGCCCCCCGUUCCCCCCUCCUCCUCGGCGCGCGGCGGCGGAGAGCCGGC; test: fluorescence of berberine with crude in vitro transcript; details: 100 mM KCl, 0.5 mM MgCl2; 50 mM MES-LiOH pH 7, 1 μM BRB, 0.1% DMSO, 0.01% Tween-20, 25 °C; crude transcription mix
[19] = tested on: RNA-K (RNA, mismatch bulge abasic) GCAGCUCGCUCUG/CAGAGUAGCUGC; test: fluorescence titration of berberine (ex 365 nm, em 550 nm); details: 100 mM KCl, 0.5 mM MgCl2; 50 mM MES-LiOH pH 7, 0.1% DMSO, 0.01% Tween-20, 25 °C, 50 nM BRB
[20] = tested on: RNA-L (RNA, mismatch bulge abasic) GCACGUCGUCCUG/CAGGAUACGUGC; test: as above; details: 100 mM KCl, 0.5 mM MgCl2; 50 mM MES-LiOH pH 7, 0.1% DMSO, 0.01% Tween-20, 25 °C, 50 nM BRB
[21] = tested on: C7-B (RNA, rRNA) GGUCCUGGGAAACGGGUUCCCUCCGAAGUUUCCCUCAGGAU; test: fluorescence of berberine with crude in vitro transcript; details: 100 mM KCl, 0.5 mM MgCl2; 50 mM MES-LiOH pH 7, 1 μM BRB, 0.1% DMSO, 0.01% Tween-20, 25 °C; crude transcription mix
[22] = tested on: A1-C (RNA, other) GGUUCACCAGCCUGGAGAUGAAAGAUGAUUUCCUCCAUGGAC; test: as above; details: 100 mM KCl, 0.5 mM MgCl2; 50 mM MES-LiOH pH 7, 1 μM BRB, 0.1% DMSO, 0.01% Tween-20, 25 °C; crude transcription mix
[23] = tested on: A1-E (RNA, hairpin) GGUCUCACAGUUCACCAGCCUAUGGACUGCAGA; test: as above; details: 100 mM KCl, 0.5 mM MgCl2; 50 mM MES-LiOH pH 7, 1 μM BRB, 0.1% DMSO, 0.01% Tween-20, 25 °C; crude transcription mix
[24] = tested on: C7-C (RNA, rRNA) GGGAAACGGGUUCCCUCCGAAGUUUCCC; test: as above; details: 100 mM KCl, 0.5 mM MgCl2; 50 mM MES-LiOH pH 7, 1 μM BRB, 0.1% DMSO, 0.01% Tween-20, 25 °C; crude transcription mix
[25] = tested on: RNA-F (RNA, mismatch bulge abasic) GCAGCUCGUCCUG/CAGGACAGCUGC; test: fluorescence titration of berberine (ex 365 nm, em 550 nm); details: 100 mM KCl, 0.5 mM MgCl2; 50 mM MES-LiOH pH 7, 0.1% DMSO, 0.01% Tween-20, 25 °C; n.d., RNA up to 4 μM

Compound: COc1cc2c(cc1OC)-c1cc3ccc(OC)c(OC)c3c[n+]1CC2
- KA(ITC) [1]: 2.32 ± 0.23 × 10^6 M^-1
- ΔΔG°25 (melting) [2]: -5.44 ± 0.418 kJ/mol

Compound: COc1cc2c(cc1OC)-c1cc3ccc4c(c3c[n+]1CC2)OCO4
- KA(ITC) [1]: 1.85 ± 0.25 × 10^6 M^-1
- ΔΔG°25 (melting) [2]: -4.18 ± 0.92 kJ/mol

Compound: COc1ccc2cc3[n+](cc2c1OC)CCc1cc2c(cc1-3)OCO2
- Kobs [3]: 4.27 ± 0.88 × 10^6 M^-1
- binding [4]: no
- binding [5]: no
- Kobs [6]: 0.36 ± 0.04 × 10^6 M^-1
- binding [7]: no
- Kobs [8]: 0.29 ± 0.01 × 10^6 M^-1
- Kobs [9]: 0.43 ± 0.06 × 10^6 M^-1
- binding [10]: no
- binding [11]: yes
- Kobs [12]: 0.98 ± 0.25 × 10^6 M^-1
- Kobs [13]: 2.79 ± 0.64 × 10^6 M^-1
- binding [14]: yes
- KA(ITC) [1]: 6.47 ± 0.37 × 10^6 M^-1
- binding [15]: yes
- binding [16]: no
- binding [17]: no
- binding [18]: no
- ΔΔG°25 (melting) [2]: -8.37 ± 0.544 kJ/mol
- Kobs [19]: 2.37 ± 0.43 × 10^6 M^-1
- Kobs [20]: 1.88 ± 0.18 × 10^6 M^-1
- binding [21]: no
- binding [22]: no
- binding [23]: yes
- binding [24]: no
- binding [25]: no

Compound: c1c2c(cc3c1OCO3)-c1cc3ccc4c(c3c[n+]1CC2)OCO4
- KA(ITC) [1]: 3.57 ± 0.31 × 10^6 M^-1
- ΔΔG°25 (melting) [2]: -7.53 ± 0.628 kJ/mol
